Measured values reported in article PMC4336329 (PLoS ONE, 2015).
About 14,000 (4.5%) of roughly 310,000 compounds showed an effect of 50% or more. The effect is printed as a negative number. This is one part of the list.

Target: human ether-à-go-go-related gene (hERG) potassium channel (human, UniProt Q12809)
Assay: primary screen, population patch clamp on CHO cells stably expressing hERG
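Also: peak tail current of the secondary pulse compared with the same well before compound.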

Sequence of human ether-à-go-go-related gene (hERG) potassium channel (Q12809 whole entry, looked up): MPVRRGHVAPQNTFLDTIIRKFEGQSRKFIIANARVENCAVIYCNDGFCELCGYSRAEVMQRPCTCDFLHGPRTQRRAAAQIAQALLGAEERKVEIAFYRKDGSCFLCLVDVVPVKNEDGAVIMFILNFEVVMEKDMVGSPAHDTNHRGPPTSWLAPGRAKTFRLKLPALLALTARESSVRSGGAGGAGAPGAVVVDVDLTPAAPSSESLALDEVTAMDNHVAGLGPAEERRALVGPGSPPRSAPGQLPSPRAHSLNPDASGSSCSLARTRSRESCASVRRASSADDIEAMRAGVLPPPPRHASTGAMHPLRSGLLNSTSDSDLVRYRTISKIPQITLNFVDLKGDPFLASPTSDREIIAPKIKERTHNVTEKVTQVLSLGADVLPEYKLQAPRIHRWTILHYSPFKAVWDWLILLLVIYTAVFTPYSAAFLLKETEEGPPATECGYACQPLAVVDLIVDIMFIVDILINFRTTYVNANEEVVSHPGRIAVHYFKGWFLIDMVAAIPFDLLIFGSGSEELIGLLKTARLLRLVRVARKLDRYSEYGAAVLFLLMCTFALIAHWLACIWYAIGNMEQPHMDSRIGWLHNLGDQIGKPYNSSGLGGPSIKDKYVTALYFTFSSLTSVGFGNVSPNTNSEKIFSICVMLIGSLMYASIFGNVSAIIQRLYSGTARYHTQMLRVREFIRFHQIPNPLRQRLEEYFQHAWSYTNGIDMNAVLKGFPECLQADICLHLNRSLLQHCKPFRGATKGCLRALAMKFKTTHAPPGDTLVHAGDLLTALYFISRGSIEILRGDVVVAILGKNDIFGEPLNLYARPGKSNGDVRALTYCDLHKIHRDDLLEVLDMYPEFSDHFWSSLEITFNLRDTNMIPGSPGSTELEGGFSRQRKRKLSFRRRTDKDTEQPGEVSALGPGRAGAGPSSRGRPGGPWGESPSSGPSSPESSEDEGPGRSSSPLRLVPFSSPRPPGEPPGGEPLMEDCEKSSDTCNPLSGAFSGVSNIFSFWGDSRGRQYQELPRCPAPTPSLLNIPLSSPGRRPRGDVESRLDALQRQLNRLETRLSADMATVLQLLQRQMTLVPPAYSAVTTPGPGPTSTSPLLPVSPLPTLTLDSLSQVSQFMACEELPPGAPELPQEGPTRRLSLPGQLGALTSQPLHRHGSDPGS

| SMILES | hERG current change (%, negative = inhibition) at 10uM [%] |
| --- | --- |
| COc1ccccc1NC(=O)N1CCC(c2nc3cc(C)c(C)cc3[nH]2)CC1 | -53.3 |
| O=C(OCCC1Oc2cccnc2NC1=O)c1ccc(F)cc1 (stereo not drawn) | 12.6 |
| O=C(Cn1nc(C(F)(F)F)c2c1CCC2)NC1CCCCC1 | -3.87 |
| COCCN(C(=O)CSc1nnc(C)n1Cc1ccccc1)c1c(N)n(Cc2ccccc2)c(=O)[nH]c1=O | 28.2 |
| O=C(CSc1nnc(-c2ccc(Br)o2)n1Cc1ccccc1)c1ccccc1F | 3.78 |
| CCOC(=O)c1ccc(NC(=O)CCC(=O)NCc2ccco2)cc1 | 14.2 |
| O=C(COC(=O)c1ccccc1O)NC(=O)c1ccc(OC(F)F)cc1 | 19.3 |
| C#CCn1c(=NC(=O)c2ccc(Cl)s2)sc2cccc(OC)c21 | 19 |
| COc1cc(NC(=O)CCN2C(=O)NC3(CCCC3)C2=O)c(OC)cc1Cl | 5.01 |
| COc1ccc(C(=O)NCc2cc(C)nc3ccccc23)cc1 | -13.6 |
| CN(C)c1ccc(CNc2nc3ccccc3s2)cc1 | 11.2 |
| Cc1cccc2c(N=Nc3ccc(S(=O)(=O)Nc4cccc(Cl)c4)cc3[N+](=O)[O-])c(O)[nH]c12 | 30.1 |
| CC1CC(C)CN(c2cc3c(cc2[N+](=O)[O-])C(=O)N(c2ccccc2)C3=O)C1 (stereo not drawn) | -3.4 |
| Cc1ccc(-n2[nH]c(C)c(C=Nc3ccc(S(=O)(=O)Nc4nccs4)cc3)c2=O)cc1 | 2.81 |
| O=C(/C=C/c1cccs1)Nc1nc(-c2ccccc2)cs1 | 6.61 |
| CCOC(=O)c1nnn(CC(=O)N2N=C(c3ccc(Cl)cc3)CC2c2ccccc2)c1C(=O)OCC (stereo not drawn) | -28 |
| COc1ccc(C(=O)N/N=C(\C)CC(=O)Nc2ccc(Cl)cn2)cc1 | -42.9 |
| CCN1CCN(c2ccc(S(=O)(=O)N3CCCCC3)cc2NC(=O)c2ccc(C)o2)CC1 | -75.7 |
| COc1cccc(C2CCCCN(C)C2=O)c1 (stereo not drawn) | -9.67 |
| O=C(CN(Cc1ccc(F)cc1)C(=O)c1ccco1)NCc1ccc(F)cc1 | -40.9 |
| Cn1c(=O)c2c(ncn2CC(=O)Nc2nc(-c3ccccc3Cl)cs2)n(C)c1=O | -3.18 |
| Cc1ccccc1NC(=O)c1cnn(-c2ccccc2)c1NC(=O)c1ccco1 | 0.329 |
| CCOc1ccccc1NC(=O)c1ccccc1-c1nc(-c2ccccc2)no1 | 4.07 |
| Cn1nccc1C(=O)Nc1sc2c(c1C#N)CCCC2 | 9.68 |
| Cc1noc(C)c1COc1ccc(C(=O)NCCOc2ccccc2)cc1 | -35.8 |
| COC(=O)C1=C(C)NC2=C(C(=O)CC(C)(C)C2)C1c1ccsc1 (stereo not drawn) | -2.23 |
| CCN(C(=O)COC(=O)c1ccccc1Nc1cccc(C)c1C)C1CCS(=O)(=O)C1 (stereo not drawn) | 2.59 |

| SMILES | hERG current change (%, negative = inhibition) at 10uM [%] |
| --- | --- |
| O=C(CCNS(=O)(=O)c1cccc2nsnc12)NC1CCCc2ccccc21 (stereo not drawn) | 9.49 |
| Cc1nc(SCC(=O)c2ccc(Cl)s2)c2oc3ccccc3c2n1 | 8.28 |
| Cc1cc(C)c(C)c(OCCCOc2cccc3cccnc23)c1 | 2.72 |
| COc1ccccc1-n1nnnc1SCC(=O)NCC1(N2CCOCC2)CCCCC1 | -39.8 |
| COc1cc(NC(=O)c2ccccc2Cl)ccc1NC(=O)c1cccs1 | 5.17 |
| CCN=C1S/C(=C\c2ccc(OCC)c(OC)c2)C(=O)N1CC | -14 |
| CC1CCCCC12NC(=O)N(CC(=O)OCc1ccc(Br)cc1)C2=O (stereo not drawn) | 12.5 |
| O=C(COC(=O)CN1C(=O)C2CCCCC2C1=O)Nc1cc(S(=O)(=O)N2CCOCC2)ccc1Cl (stereo not drawn) | -12.6 |
| COc1ccc(S(=O)(=O)N(CC(=O)N/N=C/c2ccccc2C(=O)O)c2ccccc2OC)cc1 | 6.67 |
| Cc1c(NC(=S)NC(=O)C(c2ccccc2)c2ccccc2)cccc1C(=O)O | -3.41 |
| c1ccc(N2CCN(c3ccc4nncn4n3)CC2)nc1 | -36.3 |
| COCc1cccc(NC(=O)Cc2cccc3ccccc23)c1 | 9.44 |
| CC(C)OCCCNC(=O)C1CCN(S(=O)(=O)N2CCCC2)CC1 | 2.81 |
| COC(=O)c1ccsc1NS(=O)(=O)c1ccccc1 | 19.3 |
| CCOc1ccc(/C=N/NC(=O)c2cccc3ccccc23)c(OCC)c1 | 11.6 |
| CCOc1ccccc1NC(=S)Nc1ccc(S(N)(=O)=O)cc1 | -6.61 |
| Cc1cc(C)nc(N2CCN(C(=O)CCC(=O)Nc3nnc(CC(C)C)s3)CC2)n1 | -6.7 |
| Cc1ccc(N(CC(=O)Nc2cc(C)ccc2C)S(C)(=O)=O)cc1 | 19.9 |
| O=C(NC1CCCC1)c1cccc(Oc2ccccc2)c1 | -2.9 |
| O=C(c1cc2c(ccc3ccccc32)o1)N1CCN(c2ncc(C(F)(F)F)cc2Cl)CC1 | 6.46 |
| COc1ccc(NC(=O)C(NC(=O)CNC(C)=O)c2ccc(C)cc2)cc1 (stereo not drawn) | 12.6 |
| CC(C)CC(NC=C1C(=O)OC(C)(C)OC1=O)C(=O)O (stereo not drawn) | -5.42 |
| CN1C(C(=O)Nc2ccc(OC(F)(F)F)cc2)=CC(c2ccco2)=NS1(=O)=O | 8.67 |
| NS(=O)(=O)c1ccc(CCNC(=O)C2CCCCN2S(=O)(=O)c2ccccc2)cc1 (stereo not drawn) | -6.11 |
| Cc1ccc(NC(=O)CN2C(=O)NC(Cc3ccccc3)C2=O)cc1Cl (stereo not drawn) | -2.75 |
| CCN(CC)S(=O)(=O)c1ccc(-c2nnc(SCC(=O)Nc3ccc(OC)cc3)o2)cc1 | -12.8 |
| O=C1C=C(c2cccc(Cl)c2O)C[C@@H](c2ccc3c(c2)OCO3)C1 | 11.8 |
